These results are taken from ChEMBL document CHEMBL4888484, “Replenishing the malaria drug discovery pipeline: Screening and hit evaluation of the MMV Hit Generation Library 1 (HGL1) against asexual blood stage Plasmodium falciparum ,using a nano luciferase reporter read-out” (2022).

For orientation: % Inhibition means the drop in the measured response relative to a control, in per cent.

The whole screen tested about 150,000 compounds, of which about 540 (0.36%) showed an effect of 50% or more. The list shows a part of the results.

For the experiment, the system named is Plasmodium falciparum. Briefly: Primary screen in NF54 nanoGlo assay, in single point, at 2uM, 72h; a lower Z score goes with more inhibition. The experiment is classed as functional, Erythrocyte. The conditions noted are these: timepoint 72 hour.
As for `CC1CCC(CNC(=O)OC(C)(C)C)N(Cc2ncccn2)C1C` (stereo not drawn), the “% Inhibition” value was -7% and the Z score came to 0.73.
Consider `O=C(c1ccccc1)N1c2ccccc2NC(c2c[nH]c3ccccc23)C1c1c[nH]c2ccccc12` (stereo not drawn), for which the “% Inhibition” value is listed as -7% and the Z score came out at 0.9.
For the molecule `CCn1ccc(C(=O)N2CC(n3ccnc3)C2)n1`, the “% Inhibition” value was -15% and the Z score stood at 1.83.
Take `O=C1N/C(=N\O)c2cc(Cl)cc(Cl)c21`: the “% Inhibition” value was -16% and the Z score turned out to be 2.91.
Take `O=C(CN1C(=O)NC2(CCCCCCC2)C1=O)Nc1ccc(Cl)cc1`: the “% Inhibition” value is on record as -6% and the Z score stood at 1.03.
For `CCOc1ccc(NC(=O)Cc2c(C)nc3nc(-c4cccnc4)nn3c2C)cc1`, in that order: 1% and -0.11.
With `Cc1nc(C)c([C@H](C)NC(=O)C(C)C)s1`, the “% Inhibition” value is on record as 10% and the Z score is on record as -1.86.
Regarding `Cc1cc(=O)n(CC(=O)N2CCOCC2)c2c(C)cccc12`, the “% Inhibition” value is -4% and the Z score was determined as 0.47.
For `O=C(CO[C@H](c1ccccc1)C(F)(F)F)N1CCC2(CCO2)CC1`, in that order: -5% and 0.82.
`CCOC(=O)COc1ccc(C#N)cc1Cl`: the “% Inhibition” value came to 5% and the Z score was -1.04.
Regarding `C[C@@H](CNC(=O)OC(C)(C)C)N(C)Cc1cn2ccccc2n1`, the “% Inhibition” value is given as -13% and the Z score turned out to be 1.99.
For `Cc1ccc([C@H](CNC(=O)COc2cc(C)cc(C)c2)N2CCOCC2)cc1`, in that order: -9% and 1.79.
Take `COc1ccc(-n2nc(C)c3sc(N4CCCN(C(=O)c5sccc5C)CC4)nc32)cc1`: the “% Inhibition” value was -13% and the Z score is listed as 1.51.
In the case of `CCNC(=O)c1ccc(N[C@H]2CCCc3c2cnn3C)nn1`, the “% Inhibition” value is recorded as -12% and the Z score came to 1.53.
As for `COCC(O)CN(C)C(=O)C(C)c1ccccc1F` (stereo not drawn), the “% Inhibition” value is listed as 2% and the Z score is reported as -0.16.
For `O=C(C[C@H]1CNCCO1)NCc1nc2ccccc2s1`, in that order: 0% and -0.06.
For `CCC(CC)(CO)c1nc(Cn2ccnn2)no1`, in that order: 8% and -1.12.
With `O=S(=O)(NCC1CCN([C@H]2CCOC2)CC1)c1ccccc1`, the “% Inhibition” value is recorded as -3% and the Z score is 0.4.
As to `CNC(=O)[C@H](Nc1nc(C)cc(N(C)C)n1)c1ccc(F)c(F)c1`, the “% Inhibition” value is given as -3% and the Z score is 0.51.
For `CC(C)[C@H]1CN(c2cc(NCCO)ncn2)C[C@@H]1NC(=O)C1CCC1`, the “% Inhibition” value worked out at 0% and the Z score turned out to be 0.04.
Regarding `Cc1cccc(OCC(O)CN2CC3(C)CC2CC(C)(C)C3)c1` (stereo not drawn), the “% Inhibition” value is listed as -12% and the Z score is on record as 1.
In the case of `Cc1cccc(NC(=O)c2ccn(COc3cccc(C(F)(F)F)c3)n2)n1`, the “% Inhibition” value is -2% and the Z score stood at 0.36.
`C[C@H]1CN(C(=O)Cn2cnc(C#N)n2)CCO1`: the “% Inhibition” value came out at 7% and the Z score is on record as -0.96.
On to `Cc1cc2occ(C(=O)N3CC4(CNC(=O)O4)C3)c2cc1C`, for which the “% Inhibition” value is given as -3% and the Z score stood at 0.38.
As to `CCC(C)CN1C(=O)C(C)NC12CCN(S(=O)(=O)c1ccc(Cl)c(Cl)c1)CC2` (stereo not drawn), the “% Inhibition” value was -4% and the Z score is 0.46.
`Cc1ccc(NC(=O)[C@H](Cc2c[nH]c3ccccc23)NC(=O)C2CCN(C(=O)CNC(=O)OC(C)(C)C)CC2)cc1`: the “% Inhibition” value is given as -16% and the Z score was determined as 1.42.
As for `Cc1ccc(-n2nc3c(=O)n(CC(=O)NC4CCCC4)nc(C)c3c2C)cc1`, the “% Inhibition” value was 8% and the Z score is -0.98.
Turning to `CC[n+]1c(/C=C/N(C)c2ccccc2)oc2ccc(-c3ccccc3)cc21`, the “% Inhibition” value amounted to 88% and the Z score is recorded as -9.92.
Consider `COc1ccc(C(C)=O)cc1CON=C(N)C1CCCC1`, for which the “% Inhibition” value was 0% and the Z score is given as -0.05.
For `O=C(COc1ccc(Cl)c(Cl)c1)N1CC[C@@]2(O)CCCC[C@H]2C1`, in that order: -3% and 0.57.
For `CCn1cc(C2C[S+]([O-])CCN2Cc2sc(C)nc2C(F)(F)F)cn1` (stereo not drawn), in that order: -2% and 0.26.
`Cc1ccc(CN2CCN(Cc3[nH]nc(C)c3Cl)[C@@H](C)C2=O)cc1`: the “% Inhibition” value is on record as -11% and the Z score was determined as 1.87.
For `Cc1cnn(C2CCN(CC3COC4(CCCCC4)O3)C2)c1` (stereo not drawn), in that order: 3% and -0.31.
Take `Cc1cc(NC(=O)c2cc(S(=O)(=O)N3CCc4ccccc43)cs2)no1`: the “% Inhibition” value is -10% and the Z score stood at 1.15.
`O=C1C[C@H](c2ccc(F)cc2F)c2c(-c3ccc(Cl)cc3)n[nH]c2N1`: the “% Inhibition” value is given as 29% and the Z score was -3.31.
As for `CCc1c(C)sc(NC(=O)C(F)(F)F)c1C(N)=O`, the “% Inhibition” value is -27% and the Z score was determined as 3.12.
For `CN1CCO[C@@H](CNCc2cncc(Br)c2)C1`, in that order: 4% and -0.53.
As for `Cc1ccc(C)c(OCc2nnc(NC(=O)c3ccc4c(c3)OCO4)s2)c1`, the “% Inhibition” value is recorded as -4% and the Z score was 0.65.
For `O=C(c1csc2c1CCCC2)N1CCC(Cc2ccccc2)CC1`, in that order: -1% and 0.18.
For `CC(=O)Nc1ccc2c(c1)C1CCN2CC1`, in that order: -31% and 3.61.
As to `NC(=O)C[C@H](c1c(F)cccc1Cl)c1c(Cc2ccccc2)[nH][nH]c1=O`, the “% Inhibition” value is reported as -6% and the Z score amounted to 0.79.
In the case of `C[C@H]1CN(S(=O)(=O)N(CCc2cccc(F)c2)C2CC2)CCO1`, the “% Inhibition” value is -3% and the Z score came to 0.26.
Regarding `CC[C@@H](C(=O)Nc1c(C(=O)Nc2ccc3c(c2)OCO3)oc2ccccc12)c1ccccc1`, the “% Inhibition” value was -6% and the Z score was found to be 1.2.
As for `C[C@@H](c1ccccn1)N(C)c1ccc(C#N)nc1`, the “% Inhibition” value is given as -9% and the Z score amounted to 1.11.
Consider `Cc1[nH]nc(CCC(=O)N2CCC[C@@]3(CCC(=O)N(CCC(C)C)C3)C2)c1C`, for which the “% Inhibition” value was found to be 6% and the Z score was -0.78.
`O=c1ccc(-c2ccccc2)nn1CN(C1CCCCC1)C1CC1`: the “% Inhibition” value was -1% and the Z score stood at 0.1.
For the molecule `C[C@H](O)c1ccc(-c2cccc(C(=O)N3CCOC(C)(C)C3)c2)cc1`, the “% Inhibition” value is recorded as -5% and the Z score was determined as 0.7.
For `CC(C)COC(=O)N1CCC[C@H]1C(=O)NC1CCCCCC1`, in that order: -8% and 1.15.
`Cc1cc(C)nc(NC(=O)N(C)Cc2cscn2)c1`: the “% Inhibition” value is on record as -18% and the Z score was 2.08.
For `O=C(Cn1cc(C(=O)Nc2ccsc2)cn1)NC1CCCCC1`, in that order: -1% and 0.23.
As for `COc1cc(OC)nc(N2C[C@H]3CC[C@@H](C2)N(Cc2c(C)noc2C)C3=O)n1`, the “% Inhibition” value was -7% and the Z score amounted to 0.94.
On to `CCn1ncnc1COc1cccc2c1[C@@H](O)CC(C)(C)O2`, for which the “% Inhibition” value was -4% and the Z score stood at 0.46.
Consider `Cc1ccccc1N1C(=O)c2cc(C(C)C)nn2C[C@@]1(C)C(=O)NC1CCCCCCC1`, for which the “% Inhibition” value is reported as -2% and the Z score is recorded as 0.29.
With `CC(C)(C)C(=O)N1CCC(N2CCC[C@H](C(=O)NCc3ccccn3)C2)CC1`, the “% Inhibition” value is recorded as -1% and the Z score is on record as 0.23.
For `CC(C)COC[C@@H](O)CN(Cc1c(-c2ccccc2)nn(C)c1Oc1ccc(Cl)cc1)CC1CC1`, in that order: -8% and 0.84.
On to `COCCN1CC[C@H](CN(C)C(=O)CC(=O)Nc2cccc(C)c2)C1`, for which the “% Inhibition” value is on record as -5% and the Z score worked out at 0.48.
Take `CCCC(=O)Nc1c(S(=O)(=O)c2ccccc2)c(C)c(C)n1CCC`: the “% Inhibition” value is given as -11% and the Z score came out at 1.42.
For the molecule `Cc1noc(-c2ccco2)c1C(=O)NCCOc1ccccc1`, the “% Inhibition” value was -4% and the Z score is 0.52.
For `Cc1nccn1C[C@H](C)Cn1c(=O)[nH]c2ccccc2c1=O`, in that order: -6% and 0.94.
As to `O=c1[nH]c(=O)c2nnc(Nc3ccc(Cl)cc3)nc2[nH]1`, the “% Inhibition” value is listed as -3% and the Z score is listed as 0.37.
For `CCOC(=O)N1CCC(NCc2cc3ccc(Cl)cc3n(CCOc3ccccc3)c2=O)CC1`, in that order: -7% and 1.3.
For the molecule `COC1(C)CN(c2ccnc(CO)c2)C1`, the “% Inhibition” value was -2% and the Z score was found to be 0.27.
For `O=S(=O)(Nc1ccc(-c2nc3ccc(Cl)cc3s2)cc1)c1cccs1`, in that order: 5% and -0.59.
As for `Cc1ccc(-c2csc(NC(=O)c3cnsn3)n2)cc1`, the “% Inhibition” value is listed as -10% and the Z score is 2.02.
`Cc1nonc1CNC(=O)[C@@H]1CCCN1C(=O)C1CCCCC1`: the “% Inhibition” value is 9% and the Z score is -1.68.
Take `CCCCc1nc(N2CCCN(C(=O)c3cccc(OC)c3)CC2)c2c(C)nn(-c3ccccc3)c2n1`: the “% Inhibition” value is listed as 2% and the Z score is reported as -0.16.
Take `Cc1oncc1CNC(=O)c1ccccc1CN1CCOCC1`: the “% Inhibition” value is -2% and the Z score is recorded as 0.25.
Regarding `O=C(N1CCCCCC1)N1CCNCC1`, the “% Inhibition” value is 8% and the Z score is reported as -1.33.
As for `CC1=C(CCN2CCN(C)[C@@]3(CCNC(=O)CC3)C2)C(C)(C)CCC1`, the “% Inhibition” value was -14% and the Z score was 2.25.
Turning to `O=C(Nc1cc(F)c2nc(N3CCOCC3)ccc2c1)C1CCC1`, the “% Inhibition” value is given as -11% and the Z score was 1.68.
On to `O=C(CN1CCOCC1)N1CCN(Cc2cccc3cn[nH]c23)CC1`, for which the “% Inhibition” value is reported as -5% and the Z score was determined as 0.44.
Consider `O=C(CCCC1CCOCC1)N(C1CCC1)C1CCC1`, for which the “% Inhibition” value is given as -13% and the Z score was found to be 1.98.
As to `CCn1cnc2c(N3C4CCC3CC(=O)C4)ncnc21`, the “% Inhibition” value is recorded as 0% and the Z score is listed as -0.01.
Turning to `Cc1ccnc([C@H]2CCN(C(=O)c3cc(C)nn3C3CCOCC3)C2)c1`, the “% Inhibition” value is -15% and the Z score was determined as 2.32.
For the molecule `Cc1nc(CNS(=O)(=O)N2CC(C)OC(C)C2)c(C)s1` (stereo not drawn), the “% Inhibition” value came out at 19% and the Z score is -2.16.
For `Cc1cc(Cl)ccc1NC(=O)C1CCN(S(=O)(=O)c2c(C)[nH]c(C)c2C(=O)N2CCCCC2)CC1`, in that order: -9% and 0.86.
For `Cc1[nH]nc(CCC(=O)N2CCC[C@H](C(=O)Cc3ccccc3)C2)c1C`, in that order: -1% and 0.08.
For the molecule `CN(C[C@H](O)c1cccnc1)c1nc(C2CCOCC2)ns1`, the “% Inhibition” value is -4% and the Z score is 0.65.
As to `Cc1[nH]ncc1C(=O)NC(C)(C)C(=O)NCC1CCCCC1`, the “% Inhibition” value was -7% and the Z score was found to be 1.43.
Consider `CCNC(=O)c1coc(CN2C(=O)COc3ccc(C(=O)COc4cccc(Cl)c4)cc32)n1`, for which the “% Inhibition” value was -5% and the Z score was 0.8.
Take `COC(=O)c1ccc(NC(=O)C2CN(C(=O)c3cnccn3)C2)cc1`: the “% Inhibition” value was -7% and the Z score was found to be 1.15.
On to `O=C(CCC1CCN(S(=O)(=O)c2cccc(F)c2)CC1)NCCN1CCCCC1`, for which the “% Inhibition” value is -9% and the Z score came out at 1.24.
Take `CC1CN(c2cccc(C#N)n2)CC2(CCCOC2)O1` (stereo not drawn): the “% Inhibition” value is reported as -20% and the Z score came out at 3.14.
For `CCN(CCC#N)Cn1ncc2cc(C(=O)OC)ccc21`, in that order: -7% and 0.98.
